From patent publication US20250205270A1, “ANTIBODY-DRUG CONJUGATE PRECURSORS COMPRISING A CYCLIC DINUCLEOTIDE” (TAKEDA PHARMACEUTICAL COMPANY LIMITED, priority 2016, published 2025)
Structures can show the parent of a compound that is named as a salt. Where two headings read alike, the source gives them in different places.

Tests used:
wild-type STING [1] = target: T1, wild-type STING (Homo sapiens (Human), UniProt Q86WV6, H232R); details: 2′,3′-cGAMP (30 μM) = 100%, solvent = 0%
wild-type STING [2] = target: T1, wild-type STING; experiment: STING-binding test (TR-FRET, displacement of fluorescein-labeled 2′,3′-cGAMP); details: 30 μM test compound
[3] = target: mutated-type STING (R232H) (Homo sapiens (Human), UniProt Q86WV6)

Nc1ncnc2c1ncn2[C@@H]1O[C@@H]2COP(=O)(O)O[C@@H]3[C@H](O)[C@@H](COP(=O)(S)O[C@H]2[C@H]1F)O[C@H]3n1cc(F)c2c(=O)[nH]cnc21 (stereo partly drawn) [Example 3, 7-((2R,5R,7R,8R,12aR,14R,15R,15aR,16R)-14-(6-amino-9H-purin-9-yl)-15-fluoro-10,16-dihydroxy-2,10-dioxido-2-sulfanyloctahydro-12H-5,8-methanofuro[3,2-1][1,3,6,9,11,2,10]pentaoxadiphosphacyclotetradecin-7-yl)-5-fluoro-3,7-dihydro-4H-pyrrolo[2,3-d]pyrimidin-4-one 1.7 Triethylamine Salt]
activity level of test compound (30 μM), STING agonistic activity test (wild-type STING [1]): 76%
binding inhibition rate of test compound (30 μM) (wild-type STING [2]): 64%

Nc1ncnc2c1ncn2[C@@H]1O[C@@H]2COP(=O)(O)O[C@@H]3[C@H](O)[C@@H](COP(=O)(S)O[C@H]2[C@H]1F)O[C@H]3n1cc(F)c2c(=O)[nH]cnc21 (stereo partly drawn) [Example 3a, 7-((2R,5R,7R,8R,12aR,14R,15R,15aR,16R)-14-(6-amino-9H-purin-9-yl)-15-fluoro-10,16-dihydroxy-2,10-dioxido-2-sulfanyloctahydro-12H-5,8-methanofuro[3,2-1][1,3,6,9,11,2,10]pentaoxadiphosphacyclotetradecin-7-yl)-5-fluoro-3,7-dihydro-4H-pyrrolo[2,3-d]pyrimidin-4-one Disodium Salt]
activity level of test compound (30 μM), STING agonistic activity test (wild-type STING [1]; Disodium Salt): 107%
binding inhibition rate of test compound (30 μM) (wild-type STING [2]; Disodium Salt): 93%

Nc1ncnc2c1ncn2[C@@H]1O[C@@H]2COP(=O)(O)O[C@@H]3[C@H](O)[C@@H](COP(=O)(O)O[C@H]2[C@H]1F)O[C@H]3n1cc(F)c2c(=O)[nH]cnc21 [Example 1a, 7-((5R,7R,8R,12aR,14R,15R,15aR,16R)-14-(6-amino-9H-purin-9-yl)-15-fluoro-2,10,16-trihydroxy-2,10-dioxidooctahydro-12H-5,8-methanofuro[3,2-1][1,3,6,9,11,2,10]pentaoxadiphosphacyclotetradecin-7-yl)-5-fluoro-3,7-dihydro-4H-pyrrolo[2,3-d]pyrimidin-4-one Disodium Salt]
activity level against mutated-type STING (R232H) of test compound (30 μM) [3]: 92%
